# From the supplement of paper PMC11417369
# ± gives the standard deviation of the averaged measurements. The list shows a part of the results.
# System: PfAP2-LT AP2 domain (GST-tagged)
# Experiment: gcPBM binding intensity (ln(normalized median fluorescence intensity)); higher = stronger DNA binding
# Procedure, shortened: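 DNA-binding domains from P. falciparum, fused to GST and produced in E. coli, were put on an Agilent 4 × 180k double-stranded probe array for 1 h in 1× PBS holding 1% milk, 0.2 mg/ml BSA, 0.5% salmon testes DNA and 0.03% Triton X-100. Probes were primer-extended, 36 bp long and drawn from intergenic genomic regions, with negative controls included. After Alexa488 anti-GST antibody detection and a 488 nm scan, binding intensity was set as the highest Masliner-normalised natural-log median intensity across replicate spots of either probe orientation.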
row,Sequence,gcPBM binding intensity (ln)
1,TTTTTTTGTTAAAAGGTGCTAATATATATAAGTGCT,8.44 ± 0.42
2,GTCCCTATAAGGGGAACACACATAAATGAATATATA [CACACA_site1024],8.84 ± 0.53
3,TTATAATTGTAAGGTAGTACATATAAATCAAATAAT [XGTACX_site7190],8.69 ± 0.47
4,ATACAAACAATTATTTGTACATAAAATTTTTTTTTT [XGTACX_site90],8.54 ± 0.53
5,ATGAATCTTTTAAAAAGTACATGTGAAAAAAATAAA [XGTACX_site49],8.6 ± 0.57
6,ATTTATTTCTTGTTAGTGCACTTTCTTTGGTAAAAT,8.87 ± 0.4
7,TTAAAATGTTGTAACGTGCACATTTTGTGGAAATCA [GTGCAC_site9559],8.66 ± 0.4
8,TATGTTAAAAAAAAAAAAAAGAAAAAAATAAAAGGA [CACACA_negctrl_site119],8.43 ± 0.55
9,AAACAAATAGACACTTGTACGTAAGTAAATAATTAA [XGTACX_site6157],9.18 ± 0.56
10,TATTTTACTTTAAAAATGGAAAAAAAAAAGAATATT [CACACA_negctrl_site1360],8.16 ± 0.54
11,TTTTTTTTTTTTACATGTACATATGAATTATAATAT [XGTACX_site5016],8.8 ± 0.47
12,TTAATAAAACTAACACGTACACATATATAATATTAT [XGTACX_site3260],8.85 ± 0.37
13,GAAAGAAGCATAAATGTACACACATATTTATATATT [CACACA_site8368],9.06 ± 0.45
14,ATTGTCATCATTATATGTACGTAAAAGAATATAGAT [XGTACX_site3117],8.81 ± 0.44
15,TTTCTATATAGATTTGCACACATAAAAATGCTTATA [CACACA_site2390],9.07 ± 0.35
16,CTTTATACATGACATAGTACCCATTTTAGATTTGAA [XGTACX_site5240],8.51 ± 0.46
17,AAGGGAAAAATATGGTTGCACTAAAAATATGTAATT [GTGCAC_site9605],8.64 ± 0.54
18,TTTATATATTTTTATCTTGATAATAATGTTTTAGAA [TGCATGCA_negctrl_site300],8.27 ± 0.44
19,ACATATTTTTACTTTTGTACATATTTTTTAATTTTC [XGTACX_site640],9.01 ± 0.48
20,GTATATTACATAAAATGTACATAAAAAGCGGAAAAG [XGTACX_site6905],9.05 ± 0.47
21,TATATTAATTATAAGACACACATATAGTAATAGAAA [CACACA_site2056],8.9 ± 0.43
22,ATGGGTTAGGCGTGTACACAATTGTATGGTTTAATA [CACACA_site4812],9.09 ± 0.33
23,AATAAGAAAACAAATGCACACCATTTATATAGATTA [CACACA_site8261],8.94 ± 0.43

row,Sequence,gcPBM binding intensity (ln)
1,TTCAAATATATGTTTTCACACACAAAAGAAATGAAA [CACACA_site8671],8.96 ± 0.39
2,CGTGGAAAAAAAAACACACACAAAAAAAAAAAAAAA [CACACA_site3997],9 ± 0.62
3,ATATATATATAATATTGTACGAAAAAAAATAAAAAA [XGTACX_site974],8.7 ± 0.47
4,TTTTCTCTAAAAAGGTGTACAACTAATAATGCACTG [XGTACX_site6074],8.64 ± 0.45
5,AAATATAATTAATGATGTACACTTATAGATATTGAT [XGTACX_site8435],8.75 ± 0.41
6,GGGTTAATATTTACTACACACACTTAAAATATGTAT [CACACA_site47],9.18 ± 0.39
7,ATGTATTTTTAAAAATATAAATTATGTAACTTGTGA [XGTACX_negctrl_site620],8.54 ± 0.5
8,TATTCTCGTTCTCATACACACAAAATATACATACAC [CACACA_site7278],9.07 ± 0.38
9,TATAATAAAATTTTTACACACTTTAAAAAAAAAAAA [CACACA_site524],8.4 ± 0.54
10,TACTGATATAATATAACCGTTTATGTGTATTTTTTA [XGTACX_negctrl_site81],8.76 ± 0.51
11,TTTTGTTCTAATATGGGAACATAAATATTAAATATA [CACACA_negctrl_site1787],8.14 ± 0.48
12,ATATAAATATTAATTACACACAAAAAAAAAAAAAAA [CACACA_site6671],8.88 ± 0.43
13,AATGGAAAAGGTAGTTGTACAACATGTTAAAATGGT [XGTACX_site1312],9.2 ± 0.42
14,ATATAAATAAACAACTTTGTTGGCCTTCCAAAATAT [CACACA_negctrl_site1181],8.69 ± 0.43
15,TTGAAGAATAAATATGCACACATGCATATATTTTTA [CACACA_site5840],8.69 ± 0.35
16,AATAAAAAAAAACGCACACACAAATATATTCCATTC [CACACA_site1224],9.64 ± 0.24
17,CTCAAAAAATTTCATAGTACTTTAAAATACTATAAT [XGTACX_site1939],8.27 ± 0.35
18,ATATATATTTAAAACGCATGCCTTGTTATATATATA [TGCATGCA_site624],9.06 ± 0.53
19,CATATATATTTTATATGTACATATATATTTTATATA [XGTACX_site8665],8.76 ± 0.37
20,ATTACAAAAATATATAAACACACAAATATAATATAT [CACACA_site8962],9.02 ± 0.44
21,ATAAAATAAAACAACACACACGAATGTATAAATATA [CACACA_site4643],9.53 ± 0.36
22,AATAAAATACAAAAATGTACAAATATAATATACATA [XGTACX_site279],8.9 ± 0.49
23,TAATAATATAAATATGCACACAAATTATTACCCAAA [CACACA_site8805],8.99 ± 0.4

row,Sequence,gcPBM binding intensity (ln)
1,TATATATATAAATGAATGCACTTTAGAAAAAAGTAC,8.62 ± 0.46
2,ATATATATTATAATAACACACATATATTATATTATA [CACACA_site406],8.72 ± 0.35
3,TAGATATATAGAATTACACACTTTTCTATAATATGA [CACACA_site6475],8.51 ± 0.38
4,ACATACTCAAATAGCACACACATAAATAAAAATGTA [CACACA_site3864],9.4 ± 0.44
5,TAATATAAAATGATAAATGAATGTGATCATTTTATA [CACACA_negctrl_site1034],8.63 ± 0.45
6,AGATATTTTTCTTAAGTACACACTAAATAGAAACTA [CACACA_site44],8.48 ± 0.46
7,AGTCTGAATAAAATTACACACATATACCTATAAATA [CACACA_site6929],9.01 ± 0.45
8,TTTTTTTTTTTCAGTTGTACATTGGGAAAATATATA [XGTACX_site4416],8.4 ± 0.52
9,TTTAAAAAAATGAAATAAAAAAAAAATAAAATAAAA [XGTACX_negctrl_site316],8.37 ± 0.54
10,ATATATATAATTTGTACACACAAATATGCATATATA [CACACA_site3432],9.01 ± 0.31
11,AAATAATTTATATATTGTACAAATATTAAATGCGAA [XGTACX_site3390],8.71 ± 0.51
12,GGGTTGATATATATTTGTACATATTATTATTTATTA [XGTACX_site7116],9.11 ± 0.35
13,ATATATATATATTATGTGCGCATATACCATTTTAAT [GTGCAC_site9575],9.4 ± 0.18
14,TTTATTTTAACTTGTTCACACATTTGAATAAATAAA [CACACA_site5064],8.46 ± 0.39
15,AAAAATATATAAACACGTACACACACATATATGTAT [XGTACX_site7436],9.46 ± 0.2
16,ACATTTATATATAATTGTACCCTACATTCTCTTTTT [XGTACX_site189],8.9 ± 0.49
17,GAAAAAAAAAAAAAAAGAAAATTCATATTTTTAATA [XGTACX_negctrl_site513],7.99 ± 0.72
18,TACCAAAAAAAAAAAAAAAATTAAATAAATATGAAA [TGCATGCA_negctrl_site383],8.25 ± 0.61
19,TAAAAGAATAAAAGTAGTACTTTTTTTTATATTAGA [XGTACX_site368],8.29 ± 0.49
20,AAAAAGTGACTCCTTACACACTTTACATAATTTAGT [CACACA_site4606],8.99 ± 0.41
21,ATATTTTTATATTAGTGTACTTATTATAATGTATAG [XGTACX_site8185],8.82 ± 0.27
22,TCTTTTTTTTTTTATTGTACAAGAAAAGGAAAAAAT [XGTACX_site3717],8.05 ± 0.31
23,ATATAATATATATGGTGTACATTTTTTAGTGCTATT [XGTACX_site1662],8.85 ± 0.49

row,Sequence,gcPBM binding intensity (ln)
1,AAGTATTATTTTTATGCATGTGAAGTGCAAAATAAA [TGCATGCA_site198],8.58 ± 0.42
2,AGTACATTTTTTTTAATAGGAAAAAAAATATTTATT [TGCATGCA_negctrl_site575],8.29 ± 0.43
3,ATAATATGTAATATTACACACAATTCATCATTTTTT [CACACA_site3159],8.99 ± 0.36
4,ATATACACCGTTGAATGTACATAAATAATATTAATA [XGTACX_site2893],9.01 ± 0.54
5,AACCATTAATTCTCTACACACTTTTATTTTATTTAG [CACACA_site1769],8.93 ± 0.46
6,ACTTTATATTTTGAACGTACAAAAAAAAAATTATGT [XGTACX_site5588],8.53 ± 0.4
7,GCACATATATACATACATACATACATACATATGTAT [TGCATGCA_negctrl_site95],9.31 ± 0.43
8,ATCATAAAAGTATACACACATACATACATATGTACA [CACACA_site2641],9.15 ± 0.38
9,ATAAAGATTTTCCAAGCATGCCACATAGTGAGATAC [TGCATGCA_site594],8.85 ± 0.47
10,TTATATATTTTTACCATACACACATATAATAAATAT [CACACA_site3721],8.85 ± 0.54
11,TAAATATATATATATGTACACACTCCAATACATATA [CACACA_site8858],8.93 ± 0.39
12,TATATATATATTATATGTACATATTCCTATATATAC [XGTACX_site7071],9.04 ± 0.4
13,TATATATATATTTATACACACATTAGTGTAGACATG [CACACA_site8964],9.04 ± 0.26
14,TCCTTATAAATATATATATAATATATATATATATAT [CACACA_negctrl_site293],8.84 ± 0.18
15,TTGTTCTAATATATTGCACACGTAAAAATATAGGTA [CACACA_site8195],8.95 ± 0.41
16,TTGGTTATACAACACATGCACACGTAAATAAATATT [CACACA_site3841],9.1 ± 0.35
17,AAGTATGCATTATATACACACATACATTTATATATT [CACACA_site4242],9.09 ± 0.35
18,ATTATGTTAAAAAGGCGTACATGTTATAAGGTCCTA [XGTACX_site344],8.8 ± 0.31
19,TATATATAAAGAGAAACATGCAAAATGTGAATATTC [TGCATGCA_site377],9.05 ± 0.28
20,ATATATCATAATAAAAGTACTTATATATTTTATATA [XGTACX_site560],8.47 ± 0.42
